Measured values as given in the antibiotic and cytotoxicity screens of Wong et al. (2023).
Some of the results follow.

System: S. aureus RN4220
Assay: growth inhibition call (relative growth <= 0.2)
Details: 50 µM

Growth inhibition call, inactive:
C[C@H]1CN([C@@H](C)CO)C(=O)c2c(c3ccccc3n2C)-c2ccccc2CO[C@@H]1CN(C)C(=O)c1ccc(F)cc1
NC[C@H]1OB(O)c2c(OCCCO)cccc21
C[C@@H]1CN([C@H](C)CO)S(=O)(=O)c2ccc(C#CCN(C)C)cc2O[C@H]1CN(C)C(=O)Nc1ccccc1F
CO[C@H]1CN(C)C(=O)c2ccc(NS(C)(=O)=O)cc2OC[C@@H](C)N(C(=O)C2CCOCC2)C[C@@H]1C
O=C(O)CN1CCCCCC1=O
CC(C)(O)C1CCC(C)(C2C(O)CC3(C)C4CC(OC5OC(CO)C(O)C(O)C5O)C5C(C)(C)C(OC6OCC(O)C(O)C6O)CCC56CC46CCC23C)O1 (configuration not stated)
CC(=O)N(O)CCCCNC(=O)CCC(=O)N(O)CCCCCNC(=O)CCC(=O)N(O)CCCCCN
Cc1ccc(S(=O)(=O)Nc2ccc3c(c2)C(=O)N([C@@H](C)CO)C[C@@H](C)[C@@H](CN(C)C(=O)Nc2cccc4ccccc24)OCCCC[C@H](C)O3)cc1
Cc1noc(C)c1NC(=O)N(C)C[C@H]1OCCCC[C@H](C)Oc2ccc(NS(=O)(=O)c3ccccc3)cc2C(=O)N([C@@H](C)CO)C[C@@H]1C
Cc1ccc(S(=O)(=O)N2C[C@H](O)COC[C@@H]3O[C@@H](CC(=O)NCc4ccc5c(c4)OCO5)CC[C@H]32)cc1
C1CC(N2CCNCC2)C1
CC(C)NC(=O)N(C)C[C@H]1Oc2ccc(NC(=O)Cc3ccccc3)cc2CC(=O)N([C@H](C)CO)C[C@H]1C
